Source: PubChem BioAssay AID1259407 (Chemical Carcinogenesis Research Information System (CCRIS), 2018)
Entries after “also recorded” stand apart in the source; their conditions may differ. Certain results were filed several times, with different values. The list is limited to them. The rule behind the calls is not given here. An entry can have further records. The records of an entry do not match, cause unknown; they may come from other doses, times, organisms or constructs than stated. Records carry a tag for their origin. The letters are not those of the source and start again with each entry. Signs of the kind (2×) count equal records among those shown.

System: CCRIS mutagenicity, Ames/micronucleus/aberration tests
Assay: CCRIS mutagenicity studies
[1] = Test System: AMES SALMONELLA TYPHIMURIUM, Strain/Indicator: TA98, Metabolic Activation: RAT, LIVER, S-9, AROCLOR 1254, Method: STANDARD PLATE
[2] = Test System: AMES SALMONELLA TYPHIMURIUM, Strain/Indicator: TA98, Metabolic Activation: RAT, LIVER, S-9, AROCLOR 1254 (10%), Method: PREINCUBATION
[3] = Test System: E. COLI, Strain/Indicator: WP2 UVRA, Metabolic Activation: HAMSTER, LIVER, S-9, AROCLOR 1254, Method: STANDARD PLATE
[4] = End Point: In vitro chromosomal aberrations, Test System: Chinese hamster lung (CHL/IU) cells, Metabolic Activation: None
[5] = End Point: IN VITRO CHROMOSOMAL ABERRATIONS, Test System: CHL CELLS, Metabolic Activation: NONE
[6] = Test System: AMES SALMONELLA TYPHIMURIUM, Strain/Indicator: TA100, Metabolic Activation: NONE, Method: STANDARD PLATE
[7] = End Point: IN VITRO CHROMOSOMAL ABERRATIONS, Test System: CHINESE HAMSTER OVARY CELLS, Metabolic Activation: RAT, LIVER, S-9, AROCLOR 1254
[8] = Test System: AMES SALMONELLA TYPHIMURIUM, Strain/Indicator: TA100, Metabolic Activation: NONE, Method: PREINCUBATION

Compound: COc1ccc(N)c(OC)c1
- mutagenic call (Test System: AMES SALMONELLA TYPHIMURIUM, Strain/Indicator: TA98, Metabolic Activation: HAMSTER, LIVER, S-9, AROCLOR 1254, Method: STANDARD PLATE): inactive; negative [0.3 to 1000 µg/plate] and active; positive [0.3 to 10000 µg/plate] and active; positive [10 to 10000 µg/plate]
- mutagenic call [1]: inactive; negative [0.3 to 10000 µg/plate] and inactive; negative [10 to 10000 µg/plate] and active; positive [10 to 10000 µg/plate]
- mutagenic call (Test System: AMES SALMONELLA TYPHIMURIUM, Strain/Indicator: TA1537, Metabolic Activation: HAMSTER, LIVER, S-9, AROCLOR 1254, Method: STANDARD PLATE): inactive; negative [0.3 to 10000 µg/plate] and inactive; negative [0.3 to 333.3 µg/plate] and active; positive [10 to 10000 µg/plate]
- mutagenic call (Test System: AMES SALMONELLA TYPHIMURIUM, Strain/Indicator: TA1538, Metabolic Activation: HAMSTER, LIVER, S-9, AROCLOR 1254, Method: STANDARD PLATE): active; positive [0.3 to 10000 µg/plate] and inactive; negative [0.3 to 333.3 µg/plate] and active; positive [10 to 10000 µg/plate]
- mutagenic call (Test System: AMES SALMONELLA TYPHIMURIUM, Strain/Indicator: TA1538, Metabolic Activation: HAMSTER, LIVER, S-9, Method: STANDARD PLATE): inactive; negative [0.3 to 10000 µg/plate] and inactive; negative [0.3 to 333.3 µg/plate] and active; positive [10 to 10000 µg/plate]

Compound: NCCNCCNCCNCCN
- mutagenic call (Test System: AMES SALMONELLA TYPHIMURIUM, Strain/Indicator: TA98, Metabolic Activation: HAMSTER, LIVER, S-9, AROCLOR 1254 (10%), Method: PREINCUBATION): active; positive and inactive; negative
- mutagenic call [2]: active; positive and inactive; negative

Compound: Nc1ccc(/C=C/c2ccccc2)cc1
- mutagenic call (Test System: AMES SALMONELLA TYPHIMURIUM, Strain/Indicator: TA98, Metabolic Activation: NONE, Method: STANDARD PLATE): inactive; negative [sample A, study A] and active; positive [sample B, study B] and active; positive [sample B, study C]

Compound: COc1ccc(C)cc1N
- mutagenic call [3]: inactive; negative [0.3 to 333.3 µg/plate] and inactive; negative [10 to 6666 µg/plate] and active; positive [62.5 to 3000 µg/plate]
- mutagenic call (Test System: E. COLI, Strain/Indicator: WP2 UVRA, Metabolic Activation: MOUSE, LIVER, S-9, Method: STANDARD PLATE): inactive; negative [0.3 to 333.3 µg/plate] and inactive; negative [10 to 6666 µg/plate] and active; positive [62.5 to 3000 µg/plate]

Compound: CNc1ccc(N(CCO)CCO)cc1[N+](=O)[O-]
- mutagenic call (Test System: MOUSE LYMPHOMA, Strain/Indicator: L5178Y (TK+/TK-), Metabolic Activation: NONE, Method: SUSPENSION/PLATE): active; positive [study A] and inactive; negative [study B]

Compound: FC(F)Cl
- mutagenic call (Test System: AMES SALMONELLA TYPHIMURIUM, Strain/Indicator: TA100, Metabolic Activation: NONE, Method: GAS EXPOSURE): inactive; negative [study A] and active; positive [study B]

Compound: O=C1C=CC(=O)c2ccccc21
- mutagenic call [4]: active; positive (structural changes and ploidy). toxic at 0.00024 mg/ml; also recorded: inactive; negative. weak structural change response is not dose related; also recorded: active; positive (structural changes). weak ploidy response is not dose related

Compound: C#CCO
- mutagenic call (Test System: Ames Salmonella typhimurium, Strain/Indicator: TA100, Metabolic Activation: None, Method: Preincubation): active; positive (2×) and active; positive (weak response)

Compound: CCC(Cl)C(=O)O (stereo not given)
- mutagenic call [5]: active; positive (structural changes) and inactive; negative

Compound: O=C1C=CC(=O)C=C1
- mutagenic call (Test System: AMES SALMONELLA TYPHIMURIUM, Strain/Indicator: TA97, Metabolic Activation: NONE, Method: PREINCUBATION): inactive; negative and active; positive
- mutagenic call (Test System: AMES SALMONELLA TYPHIMURIUM, Strain/Indicator: TA98, Metabolic Activation: NONE, Method: PREINCUBATION): inactive; negative [study A] and active; positive [study B] and inactive; negative [study C]
- mutagenic call (Test System: AMES SALMONELLA TYPHIMURIUM, Strain/Indicator: TA104, Metabolic Activation: NONE, Method: PREINCUBATION): inactive; negative and active; positive

Compound: CC(C)CCON=O
- mutagenic call (Test System: Mouse lymphoma, Strain/Indicator: L5178Y (tk+/tk-), Metabolic Activation: None, Method: Suspension/plate): active; equivocal (previously evaluated positive); also recorded: active; positive; also recorded: active; inconclusive (previously evaluated positive)
- mutagenic call (Test System: Mouse lymphoma, Strain/Indicator: L5178Y (tk+/tk-), Metabolic Activation: Rat, Liver, S-9, Aroclor 1254, Method: Suspension/plate): active; positive (2×) and inactive; negative

Compound: O=C1c2ccccc2C(=O)c2ccccc21
- mutagenic call [2]: inactive; negative; 100% pure and inactive; negative and active; positive; 99.4% pure
- mutagenic call (Test System: AMES SALMONELLA TYPHIMURIUM, Strain/Indicator: TA100, Metabolic Activation: RAT, LIVER, S-9, AROCLOR 1254 (10%), Method: PREINCUBATION): inactive; negative; 100% pure and inactive; negative and active; positive; 99.4% pure
- mutagenic call (Test System: AMES SALMONELLA TYPHIMURIUM, Strain/Indicator: TA1537, Metabolic Activation: NONE, Method: PREINCUBATION): inactive; negative [study A] and inactive; negative; 99.8% pure [study B]

Compound: S=C1NCCN1
- mutagenic call (Test System: AMES SALMONELLA TYPHIMURIUM, Strain/Indicator: TA1535, Metabolic Activation: HAMSTER, LIVER, S-9, AROCLOR 1254 (10%), Method: PREINCUBATION): inactive; negative and active; positive
- mutagenic call (Test System: AMES SALMONELLA TYPHIMURIUM, Strain/Indicator: TA1535, Metabolic Activation: NONE, Method: PREINCUBATION): inactive; negative and active; positive
- mutagenic call (Test System: AMES SALMONELLA TYPHIMURIUM, Strain/Indicator: TA1535, Metabolic Activation: RAT, LIVER, S-9, AROCLOR 1254 (10%), Method: PREINCUBATION): inactive; negative and active; positive

Compound: CCOC(=O)NNc1nncc2ccccc12
- mutagenic call [6]: inactive; negative [study A] and active; positive [study B]

Compound: CC1(c2ccc(Oc3ccccc3)cc2)OC(=O)N(Nc2ccccc2)C1=O (stereo not given)
- mutagenic call (End Point: UDS in rat hepatocytes, Test System: Crl:CD(SB)BR male rats, Metabolic Activation: None): inactive; negative; also recorded: active; positive. (reporducible in 3 trials but no concentration-related response)

Compound: C[C@H]1CCCC(=O)CCC/C=C/c2cc(O)cc(O)c2C(=O)O1
- mutagenic call [7]: inactive; negative and active; positive
- mutagenic call [6]: inactive; negative; toxicity at 1000 ug/plate [study A]; also recorded: inactive; negative [study B]
- mutagenic call (Test System: AMES SALMONELLA TYPHIMURIUM, Strain/Indicator: TA1538, Metabolic Activation: NONE, Method: STANDARD PLATE): inactive; negative; toxicity at 1000 ug/plate [study A]; also recorded: inactive; negative [study B]

Compound: CC(=O)C(Cl)Cl
- mutagenic call [6]: inactive; negative [study A] and active; positive [study B]

Compound: Nc1ccccc1[N+](=O)[O-]
- mutagenic call [5]: inactive; negative; authors report equivocal results for ploidy changes at 0.13 mg/ml; also recorded: active; positive (ploidy changes); also recorded: active; positive (structural and ploidy changes)

Compound: Cc1cnc2ccccc2c1
- mutagenic call (Test System: AMES SALMONELLA TYPHIMURIUM, Strain/Indicator: TA100, Metabolic Activation: RAT, LIVER, S-9, Method: PREINCUBATION): active; positive [study A] and inactive; negative [study B]

Compound: O=NN1CCC[C@H]1c1cccnc1
- mutagenic call (Test System: AMES SALMONELLA TYPHIMURIUM, Strain/Indicator: TA100, Metabolic Activation: RAT, LIVER, S-9, AROCLOR 1254, Method: STANDARD PLATE): active; positive [study A] and inactive; negative [study B]

Compound: CCC(C)Nc1ccc(NC(C)CC)cc1 (stereo not given)
- mutagenic call (End Point: IN VITRO CHROMOSOMAL ABERRATIONS, Test System: CHINESE HAMSTER LUNG CELLS (CHL), Metabolic Activation: NONE): inactive; negative; authors describe results at highest dose for 24 hr treatment as equivo; also recorded: inactive; negative; authors describe results at highest dose as equivocal

Compound: O=P(OCC(Br)CBr)(OCC(Br)CBr)OCC(Br)CBr (stereo not given)
- mutagenic call [3]: inactive; negative and active; positive
- mutagenic call (Test System: E. COLI, Strain/Indicator: WP2 UVRA, Metabolic Activation: HAMSTER, LIVER, S-9, Method: STANDARD PLATE): inactive; negative and active; positive
- mutagenic call (Test System: E. COLI, Strain/Indicator: WP2 UVRA, Metabolic Activation: MOUSE, LIVER, S-9, AROCLOR 1254, Method: STANDARD PLATE): inactive; negative and active; positive
- mutagenic call (Test System: E. COLI, Strain/Indicator: WP2 UVRA, Metabolic Activation: RAT, LIVER, S-9, AROCLOR 1254, Method: STANDARD PLATE): inactive; negative and active; positive

Compound: ClC1C(Cl)C(Cl)C(Cl)C(Cl)C1Cl (stereo not given)
- mutagenic call [1]: inactive; negative [sample A, study B] and active; positive [sample B, study A] and inactive; negative [sample B, study B]

Compound: CCOc1ccc([N+](=O)[O-])cc1
- mutagenic call [8]: inactive; negative [study A] and active; positive [study B]

Compound: O=C(CBr)c1ccc(-c2ccccc2)cc1
- mutagenic call [8]: inactive; negative and active; positive

Compound: Oc1c(Cl)c(Cl)c(Cl)c(Cl)c1Cl
- mutagenic call [7]: active; positive; statistically significant increase, but not dose-related; also recorded: active; positive

Compound: c1ccc(Nc2ccccc2)cc1
- mutagenic call [4]: inactive; negative. toxicity at 0.10 mg/ml; also recorded: active; positive (structural changes) (2×)
